Data: the supplement of paper PMC4723716
± gives the uncertainty stated by the source. Over roughly 9,900 compounds, “viability index relative to DMSO control” has its median near 1; the lowest 2% begin near 0.85. This is one part of the list.

Test system: Plasmodium falciparum NF54 stage V gametocytes
Assay: viability index relative to DMSO control (fraction); higher = less gametocyte killing
Settings: 2.5 µM, incubation time: 72 h
How it was run: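 Viability index is the count of red-stained particles in a well divided by the plate mean of solvent-only wells. Particles of 20–70 µm2 were counted in one imaged field per well after one to two hours with 3 µl of 2.5 µM MitoTracker Red CMXRos and 0.13% saponin. Before staining, P. falciparum NF54 stage V gametocytes in serum-free medium (0.75% gametocytemia, 1.25% hematocrit, 10 µl, 1,536-well plates) were kept with compound at 2.5 µM for 72 hr at 37°C under low oxygen.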

[1] = library set: Broad Institute DOS

Row | SMILES | viability index [1] | viability index (library set: Broad Institute Blood Stage)
1 | COC(=O)C[C@H]1CC[C@H]2[C@@H](COc3ccc(NC(=O)Nc4cccc(C#N)c4)cc3C(=O)N2C)O1 | 1.138 ± 0.0038 | –
2 | COc1cccc(C(=O)Nc2ccc3c(c2)C(=O)N(C)[C@@H]2CC[C@@H](CC(=O)N[C@H](C)c4ccccc4)O[C@H]2CO3)c1 | 1.15 ± 0.081 | –
3 | Cc1ccc(-c2ccccc2[C@H]2[C@@H](C#N)N(S(C)(=O)=O)[C@@H]2CO)cc1 | 1.11 ± 0.053 | –
4 | Cc1cc(C(=O)Nc2ccc3c(c2)C(=O)N(C)[C@H]2CC[C@H](CC(=O)O)O[C@H]2CO3)no1 | 1.05 ± 0.027 | –
5 | O=C(O)[C@@H]1[C@@H](CO)[C@@H]2Cn3c(ccc(/C=C/c4ccccc4)c3=O)[C@@H]2N1Cc1ccc2c(c1)OCO2 | 1.08 ± 0.071 | –
6 | C[C@H](CO)N1C[C@H](C)[C@H](CN(C)C(=O)NC2CCCCC2)OCCCC[C@H](C)Oc2ccc(N(C)C)cc2C1=O | 0.9597 ± 0.0078 | –
7 | O=C(NC1CCCC1)N[C@H]1C=C[C@@H](CC(=O)N2CCOCC2)O[C@@H]1CO | 1.2 ± 0.013 | –
8 | CO[C@@H](CN(C)C(=O)c1ccc2c(c1)OCO2)[C@H](C)CN([C@@H](C)CO)S(=O)(=O)c1ccc(Cl)cc1 | 1.02 ± 0.018 | –
9 | CCCC#Cc1ccc([C@@H]2[C@H](CO)N3C(=O)CN(C(=O)Nc4cccc(F)c4)C[C@@H]23)cc1 | 1.07 ± 0.074 | –
10 | O=C(N[C@@H]1CC[C@@H](CCNS(=O)(=O)c2ccc(F)cc2)O[C@H]1CO)C1CCC1 | 1.15 ± 0.12 | –
11 | COCC(=O)N1[C@H](CO)[C@H]2c3ccccc3N(C)C[C@H]21 | 1.08 ± 0.042 | –
12 | C[C@H](NC(=O)C[C@@H]1CC[C@@H]2[C@H](COC[C@H](O)CN2C(=O)Nc2cccc(Cl)c2)O1)c1ccccc1 | 1.09 ± 0.051 | –
13 | COc1cccc(-c2cn(CC[C@@H]3CC[C@@H](NS(=O)(=O)c4ccccc4Cl)[C@H](CO)O3)nn2)c1 | 0.915 ± 0.058 | –
14 | COc1ccc(S(=O)(=O)N(C)C[C@H]2Oc3ccc(NC(=O)Nc4ccc(C(F)(F)F)cc4)cc3C(=O)N([C@@H](C)CO)C[C@H]2C)cc1 | 1.06 ± 0.014 | –
15 | CCS(=O)(=O)N1[C@H](C#N)[C@@H](c2ccc(C#CCC3CCCC3)cc2)[C@@H]1CO | 1.0889 ± 0.00066 | –
16 | Cn1cnc(S(=O)(=O)N2C[C@@H]3N[C@H](C2)[C@@H]3c2ccc(-c3ccccc3F)cc2)c1 | 1.11 ± 0.017 | –
17 | O=C(C1CC1)N1CC[C@H]2[C@H](CO)Nc3ccc(Br)cc3[C@H]21 | 1.03 ± 0.024 | –
18 | C[C@@H]1CN([C@H](C)CO)C(=O)Cc2cc(NS(=O)(=O)c3ccc(F)cc3)ccc2O[C@H]1CN(C)Cc1ccncc1 | 1.07 ± 0.045 | –
19 | C[C@@H](NC(=O)C[C@H]1CC[C@@H]2[C@H](COc3ccc(NC(=O)C4CCOCC4)cc3C(=O)N2C)O1)c1ccccc1 | 1.14 ± 0.078 | –
20 | CCCNC(=O)N1[C@H](C#N)[C@H](c2ccc(C#Cc3ccc(F)cc3)cc2)[C@@H]1CO | – | 0.844 ± 0.021
21 | COc1ccccc1NC(=O)N1C[C@@H]2[C@H](c3ccccc31)[C@H](CO)N2Cc1ccc2c(c1)OCO2 | 0.975 ± 0.038 | –
22 | O=C(c1ccccn1)N1CC[C@@H]2[C@@H](CO)Nc3ccc(Br)cc3[C@@H]21 | 1.14 ± 0.095 | –
23 | O=C(c1ccccn1)N1C[C@@H]2[C@H](c3ccccc31)[C@H](CO)N2C(=O)Nc1ccccc1Cl | 1.05 ± 0.039 | –
24 | COc1ccc(S(=O)(=O)Nc2ccc3c(c2)C(=O)N([C@H](C)CO)C[C@H](C)[C@@H](CN(C)C(=O)Nc2c(C)noc2C)OCCCC[C@@H](C)O3)cc1 | 1.08 ± 0.045 | –

Row | SMILES | viability index [1] | viability index (library set: Broad Institute Blood Stage)
25 | COc1ccccc1S(=O)(=O)N1[C@@H]2CNC[C@H]1[C@H]2c1ccc(-c2ccncc2)cc1 | 1.15 ± 0.016 | –
26 | O=C(C1CCOCC1)N1CC[C@@H]2[C@H](CO)Nc3ccc(-c4cccc(F)c4)cc3[C@@H]21 | 1.11 ± 0.0031 | –
27 | COc1ccc(NC(=O)N(C)C[C@H]2Oc3ccc(NC(=O)CCN4CCOCC4)cc3C(=O)N([C@@H](C)CO)C[C@H]2C)cc1 | 1.01 ± 0.086 | –
28 | CS(=O)(=O)N1CC2(C1)[C@H](c1ccccc1)[C@H](CO)N2Cc1ccccc1 | 1.12 ± 0.062 | –
29 | C[C@H](CO)N1C[C@H](C)[C@H](CN(C)Cc2ccccc2C(=O)O)Oc2cc(-c3ccc(F)cc3)ccc2S1(=O)=O | 0.983 ± 0.054 | –
30 | O=C(Cc1ccccn1)N[C@@H]1CC[C@@H](CCNS(=O)(=O)c2cccc(F)c2)O[C@H]1CO | 1.03 ± 0.099 | –
31 | O=C(c1cnccn1)N1CC(=O)N2[C@H](CO)[C@H](c3ccc(-c4cccc(F)c4)cc3)[C@H]2C1 | 1.055 ± 0.0042 | –
32 | C/C=C/c1ccc([C@@H]2[C@@H]3CN(S(=O)(=O)c4cccc(OC)c4)C[C@H]2N3)cc1 | 0.9677 ± 0.0036 | –
33 | CO[C@H]1CN(C)C(=O)c2cc(NC(=O)c3nc4ccccc4s3)ccc2OC[C@@H](C)NC[C@H]1C | 1.14 ± 0.05 | –
34 | COc1ccccc1NC(=O)N1CCCCN2[C@H](CO)[C@@H](c3ccc(-c4cccc(C#N)c4)cc3)[C@@H]2C1 | 0.926 ± 0.01 | –
35 | CO[C@H]1CC[C@@H]2CCOc3c(C#N)cccc3C(=O)N(C)CC3(CCCCC3)CC(=O)N(C)C[C@@H]1O2 | 1.05 ± 0.097 | –
36 | CCCC(=O)Nc1ccc2c(c1)C(=O)N(C)[C@H]1CC[C@H](CC(=O)NCc3cccc(F)c3)O[C@@H]1CO2 | 1.02 ± 0.059 | –
37 | CN(C)CC(=O)N1[C@@H](C#N)[C@H](c2ccc(-c3cccc(C(=O)N(C)C)c3)cc2)[C@@H]1CO | 1.16 ± 0.082 | –
38 | C[C@@H]1CCCCO[C@@H](CN(C)Cc2ccc(Cl)c(Cl)c2)[C@@H](C)CN([C@H](C)CO)C(=O)c2cc(NS(=O)(=O)c3cccs3)ccc2O1 | 1.05 ± 0.13 | –
39 | C[C@@H]1CN([C@H](C)CO)C(=O)c2c(c3ccccc3n2C)-c2ccccc2CO[C@@H]1CN(C)C(=O)[C@@H](Cc1ccccc1)N(C)C | 1.07 ± 0.018 | –
40 | COc1ccc(CNC(=O)c2cc3c(c(-c4cccc(-c5ccc(C#N)cc5)c4)n2)[C@H](CCO)N([S@@](=O)C(C)(C)C)C3)cc1 | 0.977 ± 0.085 | –
41 | N#C[C@@H]1[C@@H](c2ccc(-c3cccc(F)c3)cc2)[C@@H](CO)N1C(=O)NC1CCCC1 | 1.02 ± 0.035 | –
42 | CN(C)CC(=O)N1[C@H](C#N)[C@H](c2ccccc2-c2ccc(C(=O)N(C)C)cc2)[C@@H]1CO | 1.14 ± 0.16 | –
43 | CC(C)(C)[S@@](=O)N1Cc2cc(C(=O)N[C@@H]3CCN(Cc4ccccc4)C3)nc(-c3cccc(-c4cccnc4)c3)c2[C@H]1CCO | 1.02 ± 0.06 | –
44 | O=C(CN1CCOCC1)N[C@H]1CC[C@@H](CCn2cc(C3CC3)nn2)O[C@@H]1CO | 1.06 ± 0.14 | –
45 | COc1ccc2c3c([C@@H](CO)NC[C@]33CCN(Cc4ccncc4)CC3)n(C)c2c1 | 1.01 ± 0.045 | –
46 | C[C@H]1CN([C@@H](C)CO)C(=O)c2cc(NC(=O)Nc3ccccc3)ccc2O[C@@H]1CN(C)Cc1ccccc1 | 0.9913 ± 0.0053 | –
47 | CCCC(=O)Nc1ccc2c(c1)C(=O)N(C)C[C@H](OC)[C@H](C)CN(Cc1ccc(F)cc1)[C@@H](C)CO2 | 1.041 ± 0.0013 | –
48 | C[C@H](CO)N1C[C@H](C)[C@@H](CN(C)C(=O)Nc2ccc3c(c2)OCO3)OCc2cn(nn2)CCCC1=O | 0.989 ± 0.024 | –

Row | SMILES | viability index [1] | viability index (library set: Broad Institute Blood Stage)
49 | COC(=O)C[C@H]1CC[C@H](N)[C@@H](CO)O1 | 1.03 ± 0.017 | –
50 | COCCNC(=O)C[C@@H]1C[C@H]2c3cc(NC(=O)CN(C)C)ccc3O[C@H]2[C@@H](CO)O1 | 1.06 ± 0.043 | –
51 | COc1ccc2c3c([nH]c2c1)[C@H](CO)N(Cc1ccccc1OC)C[C@]31CN(C1)C(C)=O | 0.9558 ± 0.0065 | –
52 | C[C@@H](NC(=O)C[C@@H]1CC[C@H]2[C@@H](COC[C@H](O)CN2Cc2ccc(C(F)(F)F)cc2)O1)c1ccccc1 | 1.079 ± 0.0056 | –
53 | CO[C@H]1CN(C)C(=O)c2cc(NC(C)=O)ccc2OC[C@@H](C)N(C(=O)Cc2ccccn2)C[C@H]1C | 1.11 ± 0.014 | –
54 | COc1ccc([C@@H]2C/C=C\C[C@H](c3ccc(F)cc3)NC(=O)CCC(=O)N2)c(OC)c1 | 1.015 ± 0.01 | –
55 | CN1C(=O)c2cc(NC(=O)C3CCOCC3)ccc2OC[C@@H]2O[C@H](CC(=O)NCCc3ccncc3)CC[C@@H]21 | 1.122 ± 0.0072 | –
56 | COc1cccc(-c2ccc3c(c2)[C@H]2[C@H](CCN2S(=O)(=O)c2cn(C)cn2)[C@H](CO)N3)c1 | 1.13 ± 0.085 | –
57 | Cc1ccc(NC(=O)Nc2ccc3c(c2)C(=O)N(C)[C@@H]2CC[C@@H](CC(=O)NCC(F)(F)F)O[C@H]2CO3)cc1 | 1.17 ± 0.072 | –
58 | CCCNC(=O)N1CC(=O)N2[C@H](C1)[C@@H](c1ccc(C#Cc3cccc(OC)c3)cc1)[C@@H]2CO | 1.05 ± 0.059 | –
59 | O=C(C[C@@H]1CC[C@H]2[C@@H](COC[C@H](O)CN2C(=O)c2cnccn2)O1)NCc1ccc(Cl)cc1 | 1.08 ± 0.025 | –
60 | CN(C[C@H]1[C@H](c2ccccc2)[C@H](CO)N1Cc1ccccn1)S(C)(=O)=O | 1.04 ± 0.042 | –
61 | O=C(C1CCC1)N1CC2(C1)[C@H](c1ccccc1)[C@@H](CO)N2Cc1nccs1 | 1.06 ± 0.056 | –
62 | CO[C@H]1CN(C)C(=O)c2cc(NC(=O)c3cnccn3)ccc2OC[C@@H](C)NC[C@H]1C | 0.983 ± 0.06 | –
63 | COCC(=O)N1[C@H](C#N)[C@H](c2ccc(C#Cc3ccccc3F)cc2)[C@H]1CO | 1.13 ± 0.014 | –
64 | O=S(=O)(NC[C@H]1[C@@H](c2ccccc2)[C@@H](CO)N1CC1CC1)c1ccccc1 | 0.985 ± 0.039 | –
65 | C/C=C/c1ccccc1[C@H]1[C@H](C#N)N(c2nc(CC)cs2)[C@H]1CO | 1.08 ± 0.11 | –
66 | CN1[C@@H]2CN(C(=O)C3CCCCC3)c3ccccc3[C@@H]2[C@@H]1CO | 1.06 ± 0.063 | –
67 | OC[C@@H]1[C@@H](c2ccccc2)C2(CN(Cc3ccc4c(c3)OCO4)C2)N1Cc1ccccc1 | 0.894 ± 0.024 | –
68 | Cc1noc(C)c1S(=O)(=O)Nc1cccc2c1O[C@@H](CN(C)Cc1ccc(C(F)(F)F)cc1)[C@@H](C)CN([C@@H](C)CO)C2=O | 0.953 ± 0.062 | –
69 | COc1ccc(-c2ccc3c(c2)[C@H]2[C@H](CCN2C(=O)c2cccc(F)c2)[C@H](CO)N3)cc1 | 1.05 ± 0.037 | –
70 | COC(=O)C[C@@H]1CC[C@H]2[C@@H](COc3ccc(NC(=O)Nc4c(C)noc4C)cc3C(=O)N2C)O1 | 0.9699 ± 0.0061 | –
71 | COCC(=O)N1CC[C@@H]2[C@H]1c1cc(C#Cc3ccc(F)cc3)ccc1N[C@@H]2CO | 1.08 ± 0.12 | –
72 | CO[C@H]1CC[C@@H]2CCOc3c(C#N)cccc3C(=O)N(C)C[C@H](OC)[C@H](C)C(=O)N(C)C[C@@H]1O2 | 1.06 ± 0.041 | –
